{"source": "ChEMBL document CHEMBL4414601", "about": "(J Med Chem, 2019)", "key": {"[1]": {"test": "Lipophilicity, LogD of compound by reverse phase HPLC analysis"}, "[2]": {"test": "Clearance in human liver microsomes at 0.5 uM measured up to 45 mins in presence of NADPH by HPLC-MS/MS analysis", "type": "ADME, Microsome"}, "[3]": {"test": "Clearance in rat liver microsomes at 0.5 uM measured up to 45 mins in presence of NADPH by HPLC-MS/MS analysis", "type": "ADME, Microsome"}, "[4]": {"test": "Aqueous solubility of compound", "conditions": "buffer"}, "[5]": {"test": "Clearance in mouse liver microsomes at 0.5 uM measured up to 45 mins in presence of NADPH by HPLC-MS/MS analysis", "type": "ADME, Microsome"}, "[6]": {"test": "Permeability of compound by PAMPA"}, "L929": {"tested_on": "L929", "test": "Cytotoxicity against mouse L929 cells assessed as reduction in viability by dual luciferase reporter gene assay", "type": "ADME, cell-based"}}, "data": [{"molecule": "CN1CCC(c2nc(-c3ccc(F)cc3)c(-c3ccnc(Nc4ccc(N5CCNCC5)cc4)n3)s2)CC1", "values": [{"measurement": "chromatographic logD", "setting": "[1]", "value": 2.38}, {"measurement": "CLH", "setting": "[2]", "value": 0.57, "unit": "mL/min/g"}, {"measurement": "CLH", "setting": "[3]", "value": 0.46, "unit": "mL/min/g"}, {"measurement": "solubility", "setting": "[4]", "value": 284, "unit": "µM"}, {"measurement": "CLH", "setting": "[5]", "value": 0.48, "unit": "mL/min/g"}, {"measurement": "Papp", "setting": "[6]", "value": 12, "unit": "×10⁻⁶ cm/s"}]}, {"molecule": "CC(=O)Nc1nc(-c2ccc(F)cc2)c(-c2ccnc(Nc3ccc(N4CCNCC4)cc3)n2)s1", "values": [{"measurement": "EC50", "setting": "L929", "value": 1.6, "unit": "µM"}, {"measurement": "chromatographic logD", "setting": "[1]", "value": 2.89}, {"measurement": "CLH", "setting": "[2]", "value": 0.4, "unit": "mL/min/g"}, {"measurement": "CLH", "setting": "[3]", "value": 0.74, "unit": "mL/min/g"}, {"measurement": "solubility", "setting": "[4]", "value": 8, "unit": "µM"}, {"measurement": "CLH", "setting": "[5]", "value": 0.97, "unit": "mL/min/g"}]}, {"molecule": "Cc1cc(Nc2nccc(-c3sc(C4CCNCC4)nc3-c3ccc(F)cc3)n2)cc(C)n1", "values": [{"measurement": "EC50", "setting": "L929", "value": 5, "unit": "µM"}, {"measurement": "chromatographic logD", "setting": "[1]", "value": 2.36}, {"measurement": "CLH", "setting": "[2]", "value": 1.3, "unit": "mL/min/g"}, {"measurement": "CLH", "setting": "[3]", "value": 1.19, "unit": "mL/min/g"}, {"measurement": "solubility", "setting": "[4]", "value": 142, "unit": "µM"}, {"measurement": "CLH", "setting": "[5]", "value": 3.44, "unit": "mL/min/g"}, {"measurement": "Papp", "setting": "[6]", "value": 19, "unit": "×10⁻⁶ cm/s"}]}, {"molecule": "Fc1ccc(-c2nc(C3CCNCC3)sc2-c2ccnc(Nc3ccncn3)n2)cc1", "values": [{"measurement": "EC50", "setting": "L929", "value": 5.4, "unit": "µM"}, {"measurement": "chromatographic logD", "setting": "[1]", "value": 2.22}, {"measurement": "CLH", "setting": "[2]", "value": 0.82, "unit": "mL/min/g"}, {"measurement": "CLH", "setting": "[3]", "value": 0.68, "unit": "mL/min/g"}, {"measurement": "solubility", "setting": "[4]", "value": 69, "unit": "µM"}, {"measurement": "CLH", "setting": "[5]", "value": 2.02, "unit": "mL/min/g"}, {"measurement": "Papp", "setting": "[6]", "value": 18, "unit": "×10⁻⁶ cm/s"}]}, {"molecule": "Fc1ccc(-c2nc(C3CCNCC3)sc2-c2ccnc(NCc3ccncc3)n2)cc1", "values": [{"measurement": "EC50", "setting": "L929", "value": 15.5, "unit": "µM"}, {"measurement": "chromatographic logD", "setting": "[1]", "value": 2.26}, {"measurement": "CLH", "setting": "[2]", "value": 5.02, "unit": "mL/min/g"}, {"measurement": "CLH", "setting": "[3]", "value": 1.42, "unit": "mL/min/g"}, {"measurement": "solubility", "setting": "[4]", "value": 315, "unit": "µM"}, {"measurement": "CLH", "setting": "[5]", "value": 4.54, "unit": "mL/min/g"}, {"measurement": "Papp", "setting": "[6]", "value": 16, "unit": "×10⁻⁶ cm/s"}]}]}
